Hit rate of the full screen: of about 74,000 compounds, about 1,100 (1.5%) were called active. The shares of active, inactive and inconclusive entries below differ from those in the screen. Calls follow the shape of the dose curve; as a rule, active = well fitted inhibition curve with a large enough effect; inconclusive = small, poorly fitted or top-dose-only effect; inactive = no such curve, though single readings can be large or run the other way. Potencies of inconclusive entries are left out as doubtful fits.
Each compound was assayed against Polyunsaturated fatty acid lipoxygenase ALOX15 (Homo sapiens) (UniProt P16050) (assay: qHTS Assay for Inhibitors of 15-hLO (15-human lipoxygenase)). Conditions: purified 15hLO-1, xylenol orange hydroperoxide absorbance; activity change, negative = inhibition: at 57.1 µM (top of the series) unless noted.
Sequence of UniProt P16050 (P16050 whole entry, looked up): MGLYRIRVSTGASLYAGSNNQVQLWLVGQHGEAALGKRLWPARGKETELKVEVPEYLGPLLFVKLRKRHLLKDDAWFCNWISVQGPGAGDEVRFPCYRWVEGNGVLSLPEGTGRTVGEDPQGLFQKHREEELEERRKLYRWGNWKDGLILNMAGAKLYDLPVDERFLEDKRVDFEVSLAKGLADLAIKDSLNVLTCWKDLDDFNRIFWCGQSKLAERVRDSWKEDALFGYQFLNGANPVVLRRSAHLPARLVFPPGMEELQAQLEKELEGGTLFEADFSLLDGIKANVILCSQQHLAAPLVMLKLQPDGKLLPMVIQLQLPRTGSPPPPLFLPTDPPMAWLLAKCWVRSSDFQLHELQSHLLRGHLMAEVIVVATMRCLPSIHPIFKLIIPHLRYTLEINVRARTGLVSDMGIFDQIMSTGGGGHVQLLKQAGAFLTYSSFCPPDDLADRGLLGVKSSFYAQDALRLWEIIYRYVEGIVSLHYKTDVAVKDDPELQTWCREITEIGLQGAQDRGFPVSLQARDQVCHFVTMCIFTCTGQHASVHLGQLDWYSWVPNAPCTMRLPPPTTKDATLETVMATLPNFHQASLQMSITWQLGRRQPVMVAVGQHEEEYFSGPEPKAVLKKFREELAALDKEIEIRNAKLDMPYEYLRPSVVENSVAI
Procedure, shortened: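 Quantitative HTS in 25 mM Hepes pH 7.5 containing 0.01% Triton X-100: human 15hLO-1 at 40 nM, arachidonic acid at 50 uM, 6 min turnover. Product quantified via ferrous oxidation/xylenol orange, 573:405 nm absorbance ratio.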
With `CN1C(=O)/C(=C2\SC(=S)N(C(CCC(=O)O)C(=O)O)C2=O)c2ccccc21` (configuration not stated) the Potency was inconclusive [inhibitor, partial curve]. With `Cc1cc(NS(=O)(=O)c2ccccc2)cc(Cl)c1O` the Potency was inconclusive [inhibitor, partial curve]. In the case of `CCCc1cc(-c2ccc(O)c(OCC)c2)c(C#N)c(N)n1`, the Potency is reported as inconclusive [inhibitor, single point]. `COC(=O)c1cc(-c2ccc(OC)c(OC)c2)on1` was tested, and the Potency was “inactive”. For `CCCCCCCCCCCCCCC(C(=O)O)C(O)(CC(=O)OC)C(=O)O` (configuration not stated), the Potency was “inactive”. With `Cc1ccc2nc(NC(=O)CN(C)S(=O)(=O)c3cccc4nsnc34)sc2c1` the Potency was “inactive”. For `C=C1C([C@@]2(C)C(OC(C)=O)CC(=O)O[C@@](C)(COC(C)=O)C2CC(=O)OC)C(OC=O)C(OC(=O)C(O)C(C)CC)[C@]2(C)C(c3ccoc3)CC(=O)C12O` (some centres not stated), the Potency was “inactive”. `COc1ccc2[nH]c(=O)c(CN(Cc3nnnn3Cc3ccco3)C3CCCCC3)cc2c1` was tested, and the Potency was active: 6.31 µM. For `COc1ccc(CCNC(=O)c2c(O)c3c([nH]c2=O)CCCC3)cc1OC`, the Potency was inconclusive [inhibitor, single point]. In the case of `Cc1ccc(C2C(C#N)=C(N)SC(N)=C2C#N)cc1`, the Potency is reported as inconclusive [inhibitor, partial curve]. For `Cc1cc2oc(C(=O)Nc3c(C)n(C)n(-c4ccccc4)c3=O)c(C)c2cc1C`, the Potency was “inactive”. In the case of `O=C(c1cccc(F)c1)N1CCC[C@@]2(CCN(c3ccncc3)C2)C1`, the Potency is reported as “inactive”. In the case of `N#[N+]c1ccc(Nc2ccccc2)cc1`, the activity change, negative = inhibition is reported as inactive: -1.4% [at 11.4 µM]. With `Cc1cccc(NC(=O)c2cc(-c3ccco3)nc3ccccc23)n1` the Potency was inconclusive [inhibitor, partial curve]. With `CN(C)C(=O)c1ccc(-c2cncnc2Nc2ccccc2)cc1` the Potency was inconclusive [inhibitor, single point]. With `CCCc1c(-c2ccc(O)cc2)nn(-c2ccc(O)cc2)c1-c1ccc(O)cc1` the Potency was inconclusive [inhibitor, partial curve]. For `CS(=O)(=O)Nc1cccc(-c2ccc3ncnc(NC4CC4)c3c2)c1`, the Potency was “inactive”. `Cc1ccc(CCN2CC(C(=O)NCCN3CCCCCC3)CC2=O)cc1` (configuration not stated) was tested, and the Potency was inconclusive [inhibitor, single point]. `NCCCC(=O)N1c2ccccc2Sc2ccccc21` was tested, and the Potency was “inactive”. With `CCOC(=O)Cc1csc(-n2sc3ccccc3c2=O)n1` the Potency was active: 0.199 µM. In the case of `CCCCC(=O)Nc1cccc2c1C(=O)N(c1ccccc1)C2=O`, the Potency is reported as inconclusive [inhibitor, partial curve, poor fit]. With `Cc1csc(-c2coc3cc(O)cc(C)c3c2=O)n1` the Potency was active: 15.8 µM. In the case of `C/C=C/C1Oc2ccc(OC)cc2N2C(=O)C(C)C(OCOC)C12` (configuration not stated), the activity change, negative = inhibition is reported as inactive: 9.2% [at 11.4 µM]. In the case of `O=C1c2[nH]nc(-c3ccccc3O)c2C(c2ccc(F)cc2)N1Cc1ccco1` (configuration not stated), the Potency is reported as inconclusive [inhibitor, single point]. In the case of `N#CCCn1c(=O)c(-c2ccc(Cl)cc2)nc2cnc(N3CCNCC3)nc21`, the Potency is reported as “inactive”. For `Cc1ccc2cc(C(c3nnnn3C3CCCC3)N3CCN(c4ccccc4)CC3)c(=O)[nH]c2c1` (configuration not stated), the Potency was inconclusive [inhibitor, partial curve]. In the case of `O=c1cc(-c2ccc(O)cc2)oc2ccc(O)cc12`, the Potency is reported as inconclusive [inhibitor, full curve]. `Cc1ccc(-c2nn(-c3ccccc3)cc2C2SCC(=O)N2Cc2ccccc2)o1` (configuration not stated) was tested, and the Potency was inconclusive [inhibitor, single point]. In the case of `CCCc1nc2oc3c(NCCOCCO)ncnc3c2c2c1COC(C)(C)C2`, the Potency is reported as “inactive”. For `COc1cccc(-c2nc(NCc3ccc(OC)cc3OC)c3ccccc3n2)c1`, the Potency was inconclusive [inhibitor, single point]. In the case of `COc1ccccc1-c1cncnc1NCc1cnc(C)cn1`, the Potency is reported as inconclusive [inhibitor, partial curve]. In the case of `C(=NCCCN1CCOCC1)c1ccc2c(c1)OCO2`, the Potency is reported as inconclusive [inhibitor, full curve, poor fit]. With `CN1CCN(CCCN2c3ccccc3Sc3ccc(C(F)(F)F)cc32)CC1` the Potency was inconclusive [inhibitor, partial curve]. For `CC(=O)N1CCC2(CC1)CN(Cc1ccc(C#N)cc1)C2`, the Potency was “inactive”. In the case of `O=C(/N=C1\NC(=O)C(F)(C(F)(F)F)S1)NC1CCCCC1` (configuration not stated), the Potency is reported as active: 10 µM. With `CCCc1ccc(OCC(O)CN2CCN(c3ccccc3)CC2)cc1` (configuration not stated) the Potency was inconclusive [inhibitor, single point]. With `CCOC(=O)C1=C(C)NC2=C(C(=O)CC(C)(C)C2)C1c1ccc2c(c1)CCCN2C` (configuration not stated) the Potency was inconclusive [inhibitor, full curve, poor fit]. `Clc1cccc(-c2nnc(SCc3nc4ccccc4[nH]3)n2Cc2ccco2)c1` was tested, and the Potency was “inactive”. `Cn1c(NC(=O)c2cccs2)c(-c2cccs2)c(=O)c2ccccc21` was tested, and the Potency was inconclusive [inhibitor, partial curve]. With `c1ccc2c(c1)OCC(c1nn3c(Cn4nnc5ccccc54)nnc3s1)O2` (configuration not stated) the Potency was inconclusive [inhibitor, single point]. For `CN(C)c1ncc2nc(-c3ccc(F)cc3)c(=O)n(CCc3ccccc3)c2n1`, the Potency was “inactive”. `O=C(/C=C/N1CCOCC1)c1coc2ccccc12` was tested, and the Potency was inconclusive [inhibitor, partial curve]. With `CCc1cccc(C)c1NC(=O)c1cccc(N(C)C)c1` the Potency was inconclusive [inhibitor, partial curve]. `CCOC(=O)OCC1OC(c2ccccc2)C=CC1Oc1ccc2oc(=O)cc(C)c2c1` (configuration not stated) was tested, and the activity change, negative = inhibition was inactive: -2.12% [at 11.4 µM]. For `CN(C)C(=O)c1ccc(-c2cc(NCc3cccnc3)ncn2)cc1`, the Potency was “inactive”. In the case of `O=C(Nc1ccc(Cc2ccncc2)cc1)c1ccc(S(=O)(=O)N2CCOCC2)cc1`, the Potency is reported as “inactive”. For `O=C(CC1N=C2c3ccccc3N=C(SCc3ccccc3Cl)N2C1=O)NCc1ccco1` (configuration not stated), the Potency was inconclusive [inhibitor, single point]. For `O=C1c2ccc(O)c(O)c2C(=O)c2c(O)ccc(O)c21`, the Potency was active: 0.251 µM. In the case of `CC(=O)C1(C)CC2=C(CCCC2(C)C)CC1C` (configuration not stated), the Potency is reported as “inactive”. In the case of `COc1ccc(CNc2nc(-c3ccc(C(=O)N(C)C)cc3)nc3ccccc23)c(OC)c1`, the Potency is reported as inconclusive [inhibitor, single point]. With `COc1ccc2cc(C(=O)NCc3ccco3)c(=Nc3ccc(C(=O)O)cc3)oc2c1` the Potency was inconclusive [inhibitor, single point]. In the case of `O=C(CC(Nc1ccccc1)C(=O)O)c1ccccc1` (configuration not stated), the Potency is reported as inconclusive [inhibitor, partial curve]. For `COc1cccc(-c2cc(=O)c3ccccc3o2)c1N`, the Potency was inconclusive [inhibitor, single point]. For `Cc1ccc(S(=O)(=O)c2c(N)n(Cc3ccco3)c3nc4ccccc4nc23)cc1`, the Potency was inconclusive [inhibitor, partial curve]. In the case of `Cc1cc(NC(=O)Cc2cccs2)no1`, the Potency is reported as inconclusive [inhibitor, partial curve]. In the case of `CSc1nnc2c3cc(C)ccc3n(Cc3ccccc3)c2n1`, the Potency is reported as “inactive”. In the case of `COc1ccc2nc(N3CCCC(O)C3)c(C#N)cc2c1` (configuration not stated), the Potency is reported as inconclusive [inhibitor, single point]. In the case of `CC(=O)NC(Cc1c[nH]c2ccccc12)C(=O)OCC(=O)Nc1ccc2c(c1)OCO2` (configuration not stated), the Potency is reported as “inactive”. For `C=CC(C1=CC(=O)C(OC)=CC1=O)c1ccc(OC)cc1` (configuration not stated), the Potency was active: 7.94 µM. With `O=C(Nc1ccc2c(c1)OCO2)Nc1cnccn1` the Potency was “inactive”. With `COc1ccc(-c2nc3cnc(Oc4cccc(Cl)c4)nc3n(C[C@H]3CCCO3)c2=O)cc1` the Potency was “inactive”. For `Cc1cc(C(=O)CNCc2ccco2)c(C)n1-c1ccc(F)cc1`, the Potency was inconclusive [inhibitor, partial curve]. `O=C(Nc1nc(-c2cccs2)cs1)c1ccc(S(=O)(=O)N2CCCCC2)cc1` was tested, and the Potency was inconclusive [inhibitor, partial curve]. With `Cn1c(-c2ccc3c(c2)OCO3)cnc1NCc1ccc(Cl)cc1` the Potency was inconclusive [inhibitor, single point]. In the case of `COc1cc(O)c2c(O)c3c(c4c2c1[C@@]1(C4)C(C)=CCCC1(C)C)[C@H](O)[C@@]1(O)CC(=O)C(C(N)=O)=C(O)[C@]1(O)C3=O`, the Potency is reported as inconclusive [inhibitor, single point]. `N#CC1=C(N)SC(N)=C(C#N)C1Cc1ccccc1` was tested, and the Potency was inconclusive [inhibitor, partial curve]. With `COc1ccc(-c2nnc3ccc(SCC(=O)N4CCN(c5ccccc5)CC4)nn23)cc1` the Potency was inconclusive [inhibitor, single point]. In the case of `CC(C)Cn1c(N)c(C(=O)COC(=O)c2cc(-c3ccco3)nc3ccccc23)c(=O)n(C)c1=O`, the Potency is reported as inconclusive [inhibitor, partial curve]. For `OC(COc1ccc(Cl)c2ccccc12)CN1CCN(c2ccccn2)CC1` (configuration not stated), the Potency was inconclusive [inhibitor, partial curve]. For `COC(=O)c1ccc(NS(=O)(=O)c2ccc(SC)cc2)cc1`, the Potency was inconclusive [inhibitor, partial curve]. In the case of `CC(C)(C)C(=O)c1sc(Nc2ccccc2)nc1N`, the Potency is reported as “inactive”. For `Cc1ccc(-n2c(=O)[nH]c3c(C(N)=O)nc(-c4ccc(C)o4)nc32)cc1`, the Potency was inconclusive [inhibitor, partial curve].

— PubChem BioAssay AID887 (National Center for Advancing Translational Sciences (NCATS), 2007)
% is scaled to controls: 0 for no effect and ±100 for the full control effect; potency is read from the fitted curve at half-maximal effect; tags tell the direction and shape of the fitted curve.
Also: nearly all actives have a fitted effect of over 55% in size.
